This list was built around the results that the source calls inconclusive (neither active nor inactive); the mix of calls is not that of the screen. A potency beside an inconclusive call is a rough fit, not a confirmed value. Calls of active or inactive are those of the source. Calls come from the whole dose curve; as a rule, active = well fitted curve in the direction sought with a large enough effect; inconclusive = small, poorly fitted or top-dose-only effect, or another doubt; inactive = no such curve, though single readings can be large; an effect the other way counts as inactive or inconclusive.
What was measured:
MKL-2 = test: qHTS assay to identify novel small-molecules to repurpose for Merkel cell carcinoma treatment (AID 1296009); details: MCC and control cell lines, CellTiter-Glo viability, 72 h; series mostly up to 46 µM; note: nearly all actives have a fitted effect of over 60% in size
Summary of the method: (§1)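 Cells exposed to NPC (8-point) and MIPE (11-point) compound dilutions for 72 hr at 37 degree celsius; viability read by CellTiter-Glo luminescence, normalized to no-cell and DMSO in-plate controls.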

UISO = test: as above; details: MCC and control cell lines, CellTiter-Glo viability, 72 h; series mostly up to 46 µM
Summary of the method: as §1

WaGa = test: as above; details: MCC and control cell lines, CellTiter-Glo viability, 72 h; series mostly up to 46 µM
Summary of the method: as §1

C33A = test: Primary qHTS to identify gynecologic anti-cancer compounds using libraries of approved drugs and bioactive compounds (AID 1345084); details: Gynecologic cancer cell panel viability, ATPlite luminescence, 48 h; series mostly up to 57.5 µM; note: nearly all actives have a fitted effect of over 55% in size
Summary of the method: (§2)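 ATP-based viability (ATPlite), 1,000 cells/well, 16 h pre-incubation, 48 h compound at 37 C, 5% CO2, 15 min RT before read.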

CAOV3 = test: as above; details: Gynecologic cancer cell panel viability, ATPlite luminescence, 48 h; series mostly up to 57.5 µM
Summary of the method: as §2
Potency is the fitted concentration of half-maximal effect; tags give direction and shape of the fitted curve.

CCCCC[C@H](O)C=C[C@H]1[C@H](O)CC(=O)[C@H]1CCCCCCC(=O)O
Potency (MKL-2): inconclusive: 29.6 µM [inhibitor, single point]
Potency (UISO): inconclusive: 20.9 µM [inhibitor, single point]
Potency (WaGa): inconclusive: 23.5 µM [inhibitor, single point]

Cc1cnc(-c2cc(N3CCN(C(=O)CCS(C)(=O)=O)CC3)ncc2Cl)c(C)c1
Potency (UISO): inactive
Potency (WaGa): inactive
Potency (C33A): inactive

NC(=O)c1cccnc1
Potency (MKL-2): inactive
Potency (CAOV3): inconclusive: 39.8 µM [rising, single point]

O=c1[nH]cnc2[nH]ncc12
Potency (UISO): inactive
Potency (C33A): inactive

COc1ccccc1-c1cccc(-c2c(O)c3cc(C#N)c(Cl)cc3[nH]c2=O)c1
Potency (UISO): inactive
Potency (WaGa): inactive

NC(N)=Nc1nc(CSCCC(N)=NS(N)(=O)=O)cs1
Potency (MKL-2): inconclusive: 23.5 µM [inhibitor, single point]
Potency (WaGa): inconclusive: 18.7 µM [inhibitor, partial curve]

Cc1cccc(N(C)C(=S)Oc2ccc3ccccc3c2)c1
Potency (MKL-2): inactive
Potency (WaGa): inconclusive: 29.9 µM [inhibitor, single point] and inactive

COc1ccc2nc(S(=O)Cc3ncc(C)c(OC)c3C)[nH]c2c1 (configuration not stated)
Potency (MKL-2): inconclusive: 21.1 µM [inhibitor, single point]
Potency (UISO): inconclusive: 18.8 µM [inhibitor, single point]
Potency (WaGa): inactive

Cc1ccc(Nc2nccc(N(C)c3ccc4c(C)n(C)nc4c3)n2)cc1S(N)(=O)=O
Potency (UISO): inconclusive: 16.6 µM [inhibitor, partial curve, poor fit]
Potency (WaGa): inconclusive: 23.7 µM [inhibitor, single point]

CCOc1cc(C(=O)Nc2ccc(Cl)c(-c3nc4ccccc4[nH]3)c2)cc(OCC)c1OCC
Potency (MKL-2): inconclusive: 23.5 µM [inhibitor, partial curve, poor fit]
Potency (UISO): inconclusive: 33.2 µM [inhibitor, single point]
Potency (C33A): inconclusive: 7.08 µM [rising, partial curve, poor fit]

CON=C(C(=O)N[C@@H]1C(=O)N2C(C(=O)O)=C(CSC(=O)c3ccco3)CS[C@H]12)c1csc(N)n1
Potency (UISO): inconclusive: 29.6 µM [inhibitor, single point]

Cn1c(NCCN(CCO)CCCc2ccc([N+](=O)[O-])cc2)cc(=O)n(C)c1=O
Potency (UISO): inactive

COc1ccc2c(c1)c(CC(=O)OCC(=O)O)c(C)n2C(=O)c1ccc(Cl)cc1
Potency (UISO): inactive
Potency (WaGa): inconclusive: 0.0105 µM [inhibitor, full curve, poor fit]

Nc1ccc(S(N)(=O)=O)cc1
Potency (MKL-2): inactive
Potency (CAOV3): inactive

Clc1ccccc1CN1CCc2sccc2C1
Potency (MKL-2): inconclusive: 13.3 µM [inhibitor, partial curve, poor fit]
Potency (WaGa): inconclusive: 33.5 µM [inhibitor, single point]
Potency (CAOV3): inconclusive: 39.8 µM [cytotoxic, single point]

COc1cc2c(cc1OC)CN(CCc1ccc(NC(=O)c3cccc4c(=O)c5cccc(OC)c5[nH]c34)cc1)CC2
Potency (UISO): inconclusive: 20.9 µM [inhibitor, single point]
Potency (WaGa): inconclusive: 20.9 µM [inhibitor, single point]

C[C@H](O)[C@@H]1C(=O)N2C(C(=O)O)=C(S[C@@H]3CN[C@H](CNS(N)(=O)=O)C3)[C@@H](C)[C@@H]12
Potency (UISO): inactive

Fc1ccc([C@@H]2CCNC[C@H]2COc2ccc3c(c2)OCO3)cc1
Potency (MKL-2): inconclusive: 26.6 µM [inhibitor, single point] and inactive
Potency (CAOV3): inconclusive: 39.8 µM [cytotoxic, single point]

CON=C(C(=O)N[C@@H]1C(=O)N2C(C(=O)O)=C(Cn3ccc(=N)n3CCO)CS[C@H]12)c1csc(N)n1
Potency (UISO): inactive

Nc1nccc(-c2ccc3noc(-c4ccc(Cl)cc4)c3c2)n1
Potency (UISO): inconclusive: 1.05 µM [inhibitor, full curve]

O=C(O)c1ccc(O)c2ncc(N3CCOCC3)cc12
Potency (UISO): inconclusive: 29.6 µM [inhibitor, single point]

Nc1cccc(S(=O)(=O)N2CCCN(S(=O)(=O)c3ccc4c(c3)OCCO4)CC2)c1
Potency (UISO): inactive
